# In PubChem BioAssay AID540317 (National Center for Advancing Translational Sciences (NCATS), 2011):
# The whole screen tested about 390,000 compounds, of which about 2,200 (0.56%) were called active. Inconclusive means that the source gave no clear call. Such entries were picked first, then a sample of the others. Calls come from the whole dose curve; as a rule, active = well fitted inhibition curve with a large enough effect; inconclusive = small, poorly fitted or top-dose-only effect; inactive = no such curve, though single readings can be large or run the other way. Potencies beside an inconclusive call are fits to weak or partial responses and may not hold up.
# Target: Chromobox protein homolog 1 (Homo sapiens) (UniProt P83916)
# Experiment: HTS for Inhibitors of HP1-beta Chromodomain Interactions with Methylated Histone Tails; note: nearly all actives have a fitted effect of over 70% in size
# Conditions: AlphaScreen HP1-beta / biotin-H3K9me3 peptide binding; series mostly up to 114 µM; activity change, negative = inhibition: at the top concentration
# In short: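 HP1-beta protein (50 nM final) preincubated 30 min at room temperature with biotinylated H3(1-18)K9me3 peptide (50 nM) in PBS pH 7.4, 0.01% Tween-20, then compound added for 30 min. AlphaScreen streptavidin donor/nickel chelate acceptor beads (10 ug/mL final), 30 min dark, luminescence read.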
# Potency is the fitted concentration of half-maximal effect; tags give direction and shape of the fitted curve.
# Chain of UniProt P83916 (P83916 whole entry, looked up): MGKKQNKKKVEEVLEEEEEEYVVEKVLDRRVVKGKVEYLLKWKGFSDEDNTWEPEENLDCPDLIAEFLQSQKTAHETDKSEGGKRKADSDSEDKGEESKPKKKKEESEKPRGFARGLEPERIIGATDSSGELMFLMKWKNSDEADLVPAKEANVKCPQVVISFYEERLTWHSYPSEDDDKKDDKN
Compound,"activity change, negative = inhibition",Potency
CCCSC1=C(C#N)C(c2cc(OC)ccc2OC)CC(=O)N1 (centres undefined),inactive: 64.8%,
CC1CC(C)CN(c2oc(-c3ccco3)nc2C#N)C1 (centres undefined),,"inconclusive: 35.5 µM [inhibitor, partial curve]"
C=CCn1c(NCc2ccc(N(C)C)cc2)nc2ccccc21,,"inconclusive: 56.2 µM [inhibitor, partial curve]"
COc1ccc(-c2nn(-c3ccccc3)cc2/C=C2/SC(=S)N(CCCC(=O)O)C2=O)c(C)c1,,"inconclusive: 39.8 µM [inhibitor, partial curve]"
CCOc1cc(/C=C2\C(=N)N3N=C(N4CCCCC4)SC3=NC2=O)ccc1OC(=O)c1ccco1,inactive: -13.2%,
Cc1ccc(Cn2c(C(C)Nc3nc(-c4ccc(Cl)c([N+](=O)[O-])c4)cs3)nc3cc(C(F)(F)F)ccc32)cc1 (centres undefined),inactive: 30.4%,
CCOC(=O)c1c(-c2ccccc2)csc1NC(=O)COc1ccc2c(C)cc(=O)oc2c1,,"inconclusive: 39.8 µM [inhibitor, single point]"
Cc1cc(C(=O)OCC(=O)NCc2ccccc2Cl)c(C)o1,inactive: 46.6%,
CCOC(=O)C1CCN(Cc2ccc(OCc3ccccc3)cc2)CC1,,"inconclusive: 12.6 µM [inhibitor, full curve]"
O=C(NCc1ccc(Cl)cc1)C(=O)NCC(c1ccc2c(c1)OCO2)N1CCOCC1 (centres undefined),inactive: 17.1% [at 57 µM],
Nn1cc(-c2ccccc2)nc1SCC(=O)N1CCN(S(=O)(=O)c2ccc3ccccc3c2)CC1,,"inconclusive: 22.4 µM [inhibitor, single point]"
CN1CCN(C2=C(Cl)C(=O)c3ccccc3C2=O)CC1,,"inconclusive: 70.8 µM [inhibitor, partial curve]"
COc1ccc(CCNCC(=O)N2C(C)CCCC2C)cc1OC (centres undefined),,"inconclusive: 56.2 µM [inhibitor, partial curve, poor fit]"
NC(=O)c1c(NC(=O)CCCC(=O)O)sc2c1CCCCCC2,,"inconclusive: 39.8 µM [inhibitor, single point]"
Cc1cccc(/C=C/C(=O)c2cc(Br)ccc(=O)c2O)c1,,"inconclusive: 89.1 µM [inhibitor, partial curve, poor fit]"
COc1ccc(CNc2oc(COc3ccc(Cl)cc3)nc2C#N)cc1,,"inconclusive: 63.1 µM [inhibitor, single point]"
CC1Nc2ccc(C(=O)NC3CCCCC3)cc2NC1=O (centres undefined),inactive: 41.9%,
COc1ccc(N2CCN(CCCNC(=O)c3nnc(Cc4ccccc4Cl)o3)CC2)cc1,,"inconclusive: 56.2 µM [inhibitor, single point]"
CCC(=O)c1ccccc1OCCCN1CCC(Cc2ccccc2)CC1,,"inconclusive: 15.8 µM [inhibitor, partial curve]"
